# About 50,000 (12%) of roughly 420,000 compounds were called active. This list was built around the results that the source calls inconclusive (neither active nor inactive); the mix of calls is not that of the screen. Calls come from the whole dose curve; as a rule, active = well fitted inhibition curve with a large enough effect; inconclusive = small, poorly fitted or top-dose-only effect; inactive = flat fitted curve, though single readings scatter. Potencies of inconclusive entries are left out as doubtful fits.
# Experiment: qHTS for Inhibitors of human tyrosyl-DNA phosphodiesterase 1 (TDP1): qHTS in cells in presence of CPT; note: nearly all actives have a fitted effect of over 55% in size
# Conditions: chicken DT40 Tdp1-/-;hTDP1 cells + 20 nM CPT, ATP luminescence, 48 h; activity change, negative = growth inhibition: at 46.2 µM (top of the series)
# Outline: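 Chicken DT40 Tdp1-/- cells stably complemented with human TDP1 were seeded at 400 cells/well in medium containing 20 nM camptothecin, exposed to pin-transferred compounds, and grown at 37 °C for at least 48 hr. Viability was read as ATP luminescence.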
# % is set by controls: 0 for no effect and ±100 for the full control effect; potency is the fitted concentration of half-maximal effect; tags give direction and shape of the fitted curve.
Compound,Potency,"activity change, negative = growth inhibition"
COCc1cccc(-c2csc(C(C)(NC(C)=O)c3ccccc3)n2)c1 (configuration not stated),active: 23.1 µM,–
NC(=O)c1sc2nc(-c3ccccc3)c3c(c2c1N)CCCC3,"inconclusive [inhibitor, single point]",–
Cc1c(C(=O)NCC2CCCO2)oc2ccc(Br)cc12 (configuration not stated),"inconclusive [inhibitor, single point]",–
O=C(NNC(=O)C1CCCN(S(=O)(=O)c2ccc3ccccc3c2)C1)C1CC1 (configuration not stated),–,inconclusive: -33.2% [inhibitor]
COc1cc2c(cc1O)CCN(C(=O)c1ccco1)C2C (configuration not stated),inactive,–
COc1cc2nc(CN3CCN(S(=O)(=O)c4ccccc4[N+](=O)[O-])CC3)[nH]c(=O)c2cc1OC,"inconclusive [inhibitor, single point]",–
COc1ccc(NC(=O)c2c(C)oc3ccc(O)c(CN4CCCC4)c23)cc1Cl,"inconclusive [inhibitor, single point]",–
O=C(CN1C(=O)NC2(CCCCCCC2)C1=O)Nc1cccc(Br)c1,active: 16.4 µM,–
CC(OC(=O)CN1C(=O)C2CC=CCC2C1=O)C(=O)Nc1ccc(F)cc1Cl (configuration not stated),inactive,–
COc1ccc(C(=O)NCC(c2ccc(N(C)C)cc2)N2CCCC2)c(OC)c1 (configuration not stated),"inconclusive [inhibitor, single point]",–
CSCCC(NC(=O)c1cccc(C)c1)C(=O)Nc1sccc1C(N)=O (configuration not stated),"inconclusive [inhibitor, partial curve, poor fit]",–
CCCCN1C(=O)C(=O)NC[C@@H]1CC1CCCCC1,inactive,–
O=C(Nc1cc(Cl)ccc1Cl)c1ccco1,inactive,–
O=C(Nc1ccc2c(c1)OCO2)C1Cc2c(-c3ccncc3)ccnc2O1 (configuration not stated),inactive,–
O=c1[nH]nc(N/N=C/c2ccc(Cl)cc2Cl)c(=O)[nH]1,"inconclusive [inhibitor, single point]",–
COc1ccccc1C(=O)NNc1ncc(C)s1,"inconclusive [inhibitor, single point]",–
COc1cccc(NC2=C(NCCO)C(=O)c3ccccc3C2=O)c1,"inconclusive [inhibitor, single point]",–
O=C1NC(=S)S/C1=C\c1cc(Cl)ccc1Cl,active: 20.6 µM,–
COc1ccc2sc(N(CCCN(C)C)C(=O)c3ccc(S(=O)(=O)N4CCc5ccccc5C4)cc3)nc2c1,active: 4.11 µM,–
O=C1CCCC(O)=C1C=Nc1ccc(O)cc1,"inconclusive [inhibitor, single point]",–
CCCCCN(C(=O)COC(=O)Cc1c(C)nc2ccccc2c1C)c1c(N)n(CCCC)c(=O)[nH]c1=O,"inconclusive [inhibitor, single point]",–
Nc1ncnc(N2CCc3ccccc32)c1[N+](=O)[O-],active: 5.8 µM,–
Cc1ccc2nc(-c3ccc(Cl)cc3)cc(C(=O)OCC(=O)c3ccccc3)c2c1,"inconclusive [inhibitor, single point]",–
COc1ccc(C(c2sc3nc(C)nn3c2O)N2CCc3ccccc3C2)cc1 (configuration not stated),inactive,–
CC(C)(C)c1ccc(OCCNC(=O)c2ncn[nH]2)cc1,inactive,–
COc1ccc(-c2nonc2NC(=O)c2ccco2)cc1OC,inactive,–

Compound,Potency,"activity change, negative = growth inhibition"
CCSc1ncc(Cl)c(C(=O)Nc2c(C(=O)Nc3cccc(C)c3)oc3ccccc23)n1,inactive,–
Cc1cc2oc(=O)c(CC(=O)NCCCO)c(C)c2c2occ(C(C)(C)C)c12,"inconclusive [inhibitor, single point]",–
Cc1nnn(C23CC4CC(CC(C(=O)NN)(C4)C2)C3)n1,inactive,–
Cc1ccc(-c2csc(N3CCN(c4ccc5nc(-c6ccncc6)n(CCN6CCCCC6)c5c4)CC3)n2)cc1,"inconclusive [inhibitor, single point]",–
CCC(C(=O)NC1CCCCC1)n1c(SCc2ccc(F)cc2)nc2ccncc21 (configuration not stated),"inconclusive [inhibitor, single point]",–
CCCCN(C)Cc1c(O)ccc2c(-c3ccccc3)cc(=O)oc12,"inconclusive [inhibitor, single point]",–
CSc1nc(N)c(C(=O)N(c2ccccc2)c2ccccc2)s1,"inconclusive [inhibitor, single point]",–
CC1CCC(NC(=O)C2(C)Cc3ccccc3C(=O)N2Cc2ccc(F)cc2)CC1 (configuration not stated),"inconclusive [inhibitor, single point]",–
COc1ccc(C(=O)NCCc2sc(-c3ccc(F)cc3)nc2C)cc1OC,"inconclusive [inhibitor, single point]",–
CCc1ccc(C2Sc3ccccc3NC3=C2C(=O)c2ccccc23)cc1 (configuration not stated),active: 16.4 µM,–
COc1ccc(NC(=O)c2sc3nc4c(cc3c2N)CN(Cc2ccccc2)CC4)cc1,inactive,–
O=C(NCc1cc(C(F)(F)F)ccc1Cl)c1cccc2c1C(=O)c1ccc(N3CCCCC3)cc1S2(=O)=O,"inconclusive [inhibitor, single point]",–
COc1cc(S(=O)(=O)n2ccc(C)n2)c(C)cc1C,inactive,–
CNS(=O)(=O)c1ccc(Cl)nc1,inactive,–
CCCc1nc2ccc(C)cn2c1Cc1cccc(F)c1,"inconclusive [inhibitor, single point]",–
COc1ccc(OCC(O)CNC(C)c2ccccc2)cc1 (configuration not stated),"inconclusive [inhibitor, single point]",–
CCC(Cn1nnc2ccccc2c1=O)NC(=O)Nc1ccc(C)cc1C (configuration not stated),inactive,–
COc1ccc(N2CCN(c3nc4c(C)cccn4c(=O)c3C=C(C#N)C#N)CC2)cc1,inactive,–
CCCNC(=O)C1(C)CCCN(C(=O)c2cccc(OC(C)=O)c2C)C1 (configuration not stated),inactive,–
CCC(NC(=O)c1cc(COc2ccc(C)nc2)on1)c1ccc(C)cc1 (configuration not stated),active: 16.4 µM,–
Cc1ccccc1OCCCCn1cnc2ccccc21,active: 11.6 µM,–
CCOc1ccccc1C(=O)NCc1ccc2c(c1)CCN2C(C)=O,active: 0.92 µM,–
O=C(NCCN1CCNCC1)c1ccccc1O,"inconclusive [inhibitor, single point]",–
COC(=O)c1c(NC(=O)c2c(-c3ccccc3Cl)noc2C)sc2c1CCC2,active: 17.8 µM,–
Cn1c(=O)c2c(nc(OCCc3ccccc3)n2C)n(C)c1=O,"inconclusive [inhibitor, partial curve]",–
CCOc1cc(/C=N/NC(=O)c2cc(-c3cccc(OC)c3)nc3ccccc23)ccc1O,active: 8.2 µM,–

Compound,Potency,"activity change, negative = growth inhibition"
Cc1ccc2cc3cc(C(=O)NCCCN4CCCCCC4)oc3nc2c1,"inconclusive [inhibitor, single point]",–
Cn1c(SCC(=O)c2ccc3c(c2)OCCO3)nnc1C1CC1,inactive,–
Cc1[nH][nH]c(=O)c1C=NCc1cccc(C(F)(F)F)c1,inactive,–
Cc1cccc(NC(=O)c2ccc3c(=O)n(CC4CCCO4)c(=S)[nH]c3c2)c1 (configuration not stated),"inconclusive [inhibitor, single point]",–
CN(C)/C(=N\OC(=O)c1ccccc1)c1nonc1N,inactive,–
Cc1ccc(C2c3[nH]c4ccccc4c3CCN2C(=O)Nc2ccc(C)c(C)c2)cc1 (configuration not stated),"inconclusive [inhibitor, partial curve, poor fit]",–
CC1CCN(CCCNC(=O)c2cc3c(s2)-c2ccccc2OC3)CC1,"inconclusive [inhibitor, single point]",–
NC(=O)c1c(NC(=O)c2ccc([N+](=O)[O-])o2)sc2c1CCCC2,"inconclusive [inhibitor, full curve]",–
CC(C)N(Cc1nc(-c2ccccc2)no1)C(=O)COc1ccccc1,"inconclusive [inhibitor, single point]",–
COc1ccc2c(c1)CCc1c(C(=O)NC3CCCCC3)noc1-2,"inconclusive [inhibitor, single point]",–
O=C(Nc1ccncc1)c1ccc(Cl)c(S(=O)(=O)N2CCCCC2)c1,active: 13 µM,–
CC(=NNS(=O)(=O)c1cccc([N+](=O)[O-])c1)c1ccc(-n2ccnc2)cc1,inactive,–
Cc1ccc(S(=O)(=O)Nc2cccc(-c3ccc(N4CCCCC4)nn3)c2)s1,"inconclusive [inhibitor, single point]",–
CC(C)CC(C(=O)Nc1ccccc1)N1C(=O)C2C3C=CC(C3)C2C1=O (configuration not stated),–,inconclusive: -34.1% [inhibitor]
CC(C)Oc1cccc(C(=O)C2CCCN(Cc3cccn3-c3cccnc3)C2)c1 (configuration not stated),"inconclusive [inhibitor, single point]",–
CN=C1SC(CC(=O)Nc2sc3c(c2C#N)CCCC3)C(=O)N1C (configuration not stated),"inconclusive [inhibitor, single point]",–
CCN=C1S/C(=C\c2cn(CC)c3ccccc23)C(=O)N1CC,active: 23.1 µM,–
COc1ccc(C2(CNC(=O)C(=O)Nc3cccc(C(F)(F)F)c3)CCCC2)cc1OC,active: 20.6 µM,–
CC(C)N1CCN(Cc2cccn2-c2nccs2)CC1CCO (configuration not stated),inactive,–
CC1CCN(C(=O)Cn2cc(C(=O)C3CC3)c3ccccc32)CC1,inactive,–
OCCN1CCN(C(=S)c2ccc(Cl)c(Cl)c2)CC1,active: 18.4 µM,–
Cc1ccc2c(C)c(C)c(=O)n(C)c2c1,inactive,–
Cc1occc1C(=O)N/N=C/c1sc(N2CCOCC2)nc1-c1ccccc1,inactive,–
COc1cccc(CC(=O)NC2CCCN(Cc3ccc(Cl)cc3)C2)c1 (configuration not stated),"inconclusive [inhibitor, single point]",–
CCN(CC)C(=O)C1=C(C)N(Cc2ccc(C(C)(C)C)cc2)C(=O)C(CC(=O)NCC2CCCCC2)C1 (configuration not stated),active: 13 µM,–
